In PMC4336329 (PLoS ONE, 2015):
The whole screen tested about 310,000 compounds, of which about 2,200 (0.71%) showed an effect of 50% or more. Effects have a minus sign here. Some of the results follow.

Biological target: human ether-à-go-go-related gene (hERG) potassium channel (human, UniProt Q12809)
Experiment: primary screen, population patch clamp on CHO cells stably expressing hERG

human ether-à-go-go-related gene (hERG) potassium channel, sequence (Q12809 whole entry, looked up): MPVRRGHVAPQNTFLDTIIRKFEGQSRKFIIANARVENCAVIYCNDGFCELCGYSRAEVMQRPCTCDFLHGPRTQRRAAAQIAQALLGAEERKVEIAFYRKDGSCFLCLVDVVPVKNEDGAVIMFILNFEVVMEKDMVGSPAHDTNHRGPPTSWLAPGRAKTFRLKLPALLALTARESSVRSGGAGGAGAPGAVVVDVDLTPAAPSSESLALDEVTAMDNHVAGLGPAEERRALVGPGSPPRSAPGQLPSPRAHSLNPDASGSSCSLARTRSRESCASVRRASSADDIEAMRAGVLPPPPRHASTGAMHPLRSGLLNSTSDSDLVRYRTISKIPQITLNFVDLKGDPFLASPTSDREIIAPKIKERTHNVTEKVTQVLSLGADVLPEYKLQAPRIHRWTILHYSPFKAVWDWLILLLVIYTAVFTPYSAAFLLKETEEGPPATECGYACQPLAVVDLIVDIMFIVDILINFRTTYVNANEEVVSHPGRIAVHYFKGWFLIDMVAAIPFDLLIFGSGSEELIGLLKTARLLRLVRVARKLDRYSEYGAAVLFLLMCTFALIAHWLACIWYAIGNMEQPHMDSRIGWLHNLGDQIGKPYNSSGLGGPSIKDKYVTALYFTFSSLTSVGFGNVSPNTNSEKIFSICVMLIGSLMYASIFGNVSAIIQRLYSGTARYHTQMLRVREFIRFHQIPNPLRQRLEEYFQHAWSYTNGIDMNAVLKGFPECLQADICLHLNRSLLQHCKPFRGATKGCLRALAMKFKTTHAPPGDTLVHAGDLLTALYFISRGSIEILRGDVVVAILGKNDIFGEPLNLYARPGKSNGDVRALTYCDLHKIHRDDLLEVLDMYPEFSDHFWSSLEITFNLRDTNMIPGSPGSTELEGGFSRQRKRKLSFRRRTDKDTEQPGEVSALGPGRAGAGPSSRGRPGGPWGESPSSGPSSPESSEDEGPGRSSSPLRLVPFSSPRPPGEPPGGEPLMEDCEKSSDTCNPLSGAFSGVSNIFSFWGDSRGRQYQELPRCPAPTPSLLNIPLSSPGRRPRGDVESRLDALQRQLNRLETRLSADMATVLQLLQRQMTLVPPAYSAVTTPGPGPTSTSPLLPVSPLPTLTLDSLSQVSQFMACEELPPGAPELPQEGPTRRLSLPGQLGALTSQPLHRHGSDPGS

SMILES | hERG current change (%, negative = inhibition) at 1uM
O=S(=O)(Nc1ccc(Cl)cn1)c1ccccc1 | 27.4%
COc1ccc(OC)c(N2C(=O)NC(=O)/C(=C/c3ccc([N+](=O)[O-])s3)C2=O)c1 | 8.78%
CCN(CC)C(=O)c1sc(NC(=O)C(C)C)c(C#N)c1C | 6.18%
Nn1cnnc1SCC(=O)N1CCc2ccccc2C1 | -10.1%
CCc1nnc(NC(=O)CCS(=O)(=O)Cc2ccccc2)s1 | 14.1%
CC(NC(=S)Nc1cccc(F)c1)C(c1cccs1)N1CCOCC1 (stereo not shown) | 8.91%
Cn1c(=O)cc(OCCCC(=O)NCc2ccc3c(c2)OCO3)c2ccccc21 | 6.58%
COc1ccc(C(=O)Nc2nc3ccccc3s2)c(OC)c1 | 17.7%
COc1ccc(OC)c(NC(=O)c2ccccc2NC(=O)c2ccco2)c1 | 5.15%
COc1ccccc1N(CCC#N)C(=O)COC(=O)CCC(=O)c1ccc(F)cc1 | 11.2%
C=CCN1C(=O)C(C(C)CC)NC1=S (stereo not shown) | -2.59%
O=C(O)c1ccccc1OCCOc1ccccc1 | 4.33%
Cc1ccc(C(c2nnnn2C(C)(C)C)N2CCN(C3CCCC3)CC2)cc1 (stereo not shown) | 6.78%
Cc1nnc(SCC(=O)Nc2cccc(S(=O)(=O)N3CCCCC3)c2)s1 | 5.35%
CC(CCc1ccccc1)NC(=O)C1CCC1 (stereo not shown) | 8%
CCCn1c(-c2ccccc2)nc2c(=O)n(C)c(=O)[nH]c21 | 8.27%
CCCc1ccccc1OCCNS(=O)(=O)c1cc2c(cc1C)OCC(=O)N2 | 12.4%
Cc1cc(C)cc(N2CN=C3SCC(=O)N3C2)c1 | 8.94%
CCN1CCN(C(=O)c2ccc(OC)c(S(=O)(=O)Nc3ccc(C)cc3)c2)CC1 | -2.18%
COc1ccc(OC)c(CCNC(=O)CCc2nnc3ccc(N4CCCC4)nn23)c1 | 10.5%
COc1ccccc1C(=O)Nc1ccc2c(c1)CC1(C(=O)N(C)C(=O)N(C)C1=O)C1CCCN21 (stereo not shown) | -8.17%
Cn1nc(N)c2c(-c3ccccc3)c(C#N)c(N)nc21 | 12.4%

SMILES | hERG current change (%, negative = inhibition) at 1uM
O=C(NCc1cccs1)c1noc2c1CCCC2 | 3.93%
O=C(Oc1coc(CSc2ncccn2)cc1=O)c1ccccc1[N+](=O)[O-] | 8.37%
CC1=NN(C(N)=S)C(=O)C1N=Nc1cccc2ccccc12 (stereo not shown) | 14.8%
COc1cc2c(cc1OC)CN(Cc1cc(=O)oc3cc(C)c(C)cc13)CC2 | 5.04%
Cc1cc(C)cc(C(=O)NCc2ccc3c(c2)OCO3)c1 | 20.2%
Cc1ccccc1C1=NC(c2ccc(F)cc2F)ON1 (stereo not shown) | 3.67%
CCCc1cc(=O)oc2cc(OCC(=O)NCc3ccccn3)ccc12 | 6.97%
Cc1ccc(S(=O)(=O)N2CCOCC2)cc1C(=O)NCc1ccc2c(c1)OCO2 | -10.5%
COC(=O)c1cnn2c(C)c(Cc3cccc(F)c3)c(C)nc12 | -2.55%
COc1ccc(-n2c(C)nc3c(cnn3-c3ccc(Cl)cc3)c2=O)cc1 | 4.71%
O=C(Nc1ccccc1NS(=O)(=O)c1ccc(F)cc1)C1CCC1 | 6.43%
O=C(CCCCCN1C(=O)[C@@H]2Cc3ccccc3CN2C1=O)Nc1ccccc1Cl | 11.6%
CS(=O)(=O)N1CCc2cc(C(=O)N3CCN(c4ccccc4)CC3)ccc21 | 11.1%
O=C(c1ccc(S(=O)(=O)N2CCOCC2)cc1)N1CCN(c2ccccc2)CC1 | -18.9%
CN=Cc1sc2ccccc2c1O | 6.91%
CCOc1ccc(NC(=S)N(C)C)cc1 | 10.7%
Cc1nn(CC(=O)NCCc2cccs2)c(=O)c2nn(-c3ccccc3)c(C)c12 | 5.68%
COc1ccccc1N1CCN(C(=O)C2CCN(S(=O)(=O)c3ccc(Cl)cc3)CC2)CC1 | 3.28%
Cc1nc2ccc(C(=O)Nc3cccc([N+](=O)[O-])c3)cc2s1 | 1.56%
Cc1ccsc1C(=O)OCc1nc2ccccc2c(=O)[nH]1 | 3.28%
Cc1nn(-c2ccccc2)c(N2CCCC2)c1C=O | 9.02%
COc1ccc(NC(=O)CN(C)C(=O)c2cccc(S(=O)(=O)N3CC4(C)CC3CC(C)(C)C4)c2)cc1 (stereo not shown) | 9.37%

SMILES | hERG current change (%, negative = inhibition) at 1uM
CCCCn1nc(C)c(C(=O)O)c1Cl | 15.8%
COc1ccc(Cl)cc1N(CC(=O)N1CCN(Cc2ccccc2)CC1)S(C)(=O)=O | 0.337%
Nc1cccc2c1C(=O)N(C(=O)c1cccc(S(=O)(=O)N3CCCC3)c1)C2=O | 12.5%
CCOC(=O)C1=CC[C@]2(C)c3c(c4ccccc4n3C)C(=O)C1N2C | 14.1%
Cc1ccc(OCC(=O)N(Cc2cccc(F)c2)C2CCS(=O)(=O)C2)cc1 (stereo not shown) | 4.55%
COc1ccc(N(CC(=O)NCCc2ccccc2)C(=O)c2csnn2)cc1OC | 15.1%
CCC(NC(=O)CCc1c(C)c2cc3c(-c4ccccc4)coc3cc2oc1=O)C(=O)O (stereo not shown) | 12.5%
Br.Cc1c(-c2ccc(O)cc2)nc2nc(-c3ccccc3)c(-c3ccccc3)nn12 | 13.3%
CSc1sc(C)cc1C1C(C#N)=C(N)N(c2cccnc2)C2=C1C(=O)CCC2 (stereo not shown) | 3.44%
COc1ccccc1-n1cnnc1SCC(=O)Nc1ncc(Cl)cc1Cl | 13.5%
CCOC(=O)C1=C(CSc2nc(-c3ccncc3)ccc2C#N)OC(N)=C(C#N)C1c1cccnc1 (stereo not shown) | 6.5%
CCOC(=O)N1CCC(n2c(SCC(=O)c3ccccc3)nc3ccsc3c2=O)CC1 | 8.06%
Cc1ccc(C)c(NC(=O)NNC(=O)c2cc3occc3[nH]2)c1 | 17.4%
COc1ccc(N2C(=O)NC(NS(=O)(=O)c3ccc(NC(C)=O)cc3)(C(F)(F)F)C2=O)cc1 (stereo not shown) | 11.6%
O=C(CS(=O)(=O)c1ccc(F)cc1)NCc1ccccc1 | 25%
CCc1ccc(CN2CCC(C(=O)Nc3cccc(-c4nnc(C)s4)c3)CC2)o1 | -4.56%
CCCc1cc(=O)[nH]c(SCCN2C(=O)c3ccccc3C2=O)n1 | 3.36%
O=C(c1cccc(Br)c1)N1CCN(S(=O)(=O)N2CCCCC2)CC1 | 8.38%
CC1CCCCN1Cc1c(C#N)c2ccccc2n1C (stereo not shown) | 9.49%
CC(=O)N1CCN(Cc2nc3cc(Cl)ccc3c(=O)[nH]2)CC1 | 12.5%
O=C(CSc1nnc(CCCOc2ccc(Cl)cc2Cl)o1)Nc1ccc(C(=O)O)cc1 | 4.6%
Fc1ccccc1Oc1nc(-c2ccncc2)nc2ccccc12 | 16.8%

SMILES | hERG current change (%, negative = inhibition) at 1uM
Cc1[nH]c2ccccc2c(=O)c1CN1CCCCCC1 | -1.52%
Cc1ccccc1OCCCC(=O)Nc1ccc(N2CCOCC2)cc1 | 8.06%
C[C@@H](NC(=O)[C@@H]1Cc2ccccc2CN1)C(=O)Nc1ccc2c(c1)OCO2 | 4.54%
NC(=O)c1nsc(C(=O)N(CC(=O)NC2CCCCC2)c2ccc(Cl)cc2)c1N | 7.91%
O=C(CCc1nc(-c2ccccc2Cl)no1)NCc1ccco1 | 1.15%
CCN(C(=O)Cn1nc(C(=O)O)c2ccccc2c1=O)C1CCCCC1 | 5.03%
CCCCC(=O)Nc1cccc(NC(=O)c2cccc(Br)c2)c1 | 7.86%
CCN1C(=O)[C@H]2[C@@H](c3ccc(-c4ccc(F)cc4)cc3)N3CCCC[C@@]3(C(=O)OC)[C@H]2C1=O.O=C(O)C(F)(F)F | 16.8%
CC(C)Cc1nc(SCC(=O)N2CC(C)OC(C)C2)c2c(=O)n(C)c(=O)n(C)c2n1 (stereo not shown) | 12.3%
O=C(NCCO)C1CCN(C(=O)c2ccc(-c3ccccc3)cc2)CC1 | 12.7%
COc1ccccc1N1CCN(CC(=O)NC(=O)NCc2ccco2)CC1 | 3.08%
CSc1nnc(-c2nnc(SC)n2-c2ccccc2)n1-c1ccccc1 | -9.26%
COCCN(C(=O)CCC(=O)Nc1cc(C)on1)C(C(=O)NC(C)(C)C)c1ccccc1Cl (stereo not shown) | 20.6%
Cc1cc(CC(=O)O)c(C)cc1CC(=O)O | 1.79%
COc1ccc(/C=C/C(=O)c2ccc(C)c([N+](=O)[O-])c2)cc1O | 14.9%
COC(=O)c1cc(N=Nc2sc(N)nc2C)cc(C(=O)OC)c1 | 5.57%
O=C(Nc1cccnc1)c1cc(F)cc(F)c1 | 11.2%
CCCc1nc(SCC(=O)Nc2cc(C)on2)c2ccccc2n1 | 10.9%
COc1ccc(C(=O)CCN2CCN(c3ccc(OC)cc3)CC2)cc1 | -74.1%
Cc1c(NC(=O)CN2CCN(c3ccc(F)cc3)CC2)c(=O)n(-c2ccccc2)n1C | 6.62%
CCC1C(c2ccccc2)N(C)C(c2ccccc2)CC1(O)c1ccccc1.Cl (stereo not shown) | 16.7%
CCN(CC)S(=O)(=O)c1cccc(C(=O)NCCCN2CCOCC2)c1 | 15.5%
